Measured values as given in article PMC7819943, “Rice protein-binding microarrays: a tool to detect cis-acting elements near promoter regions in rice”.
The other results are listed elsewhere or left out.

Target: T1, OsWOX13 (Oryza sativa, UniProt Q5QMM3 1-267)
T1 sequence: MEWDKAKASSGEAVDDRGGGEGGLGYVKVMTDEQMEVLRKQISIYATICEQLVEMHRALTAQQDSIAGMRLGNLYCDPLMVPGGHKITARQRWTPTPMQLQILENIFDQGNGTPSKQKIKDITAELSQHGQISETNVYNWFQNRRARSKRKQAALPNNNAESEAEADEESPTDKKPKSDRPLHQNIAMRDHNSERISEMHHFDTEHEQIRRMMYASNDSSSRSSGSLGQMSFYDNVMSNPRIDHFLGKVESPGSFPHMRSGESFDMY
Assay: protein-binding microarray (RPBM); PBS, 2% BSA, 51.3 ng/ul salmon testes DNA, 50 uM zinc acetate, 200 nM TF, 25 C, 1 h; high values mean tight binding
Settings: protein: recombinant; tags: N-terminal polyhistidine and DsRed monomer fusion (pET32a); label: CyDye5-dUTP incorporated in the synthesized complementary strand; 3' TTTTT single-stranded linker to array surface; dsDNA, one strand shown
How it was run: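 Transcription factors were made in E. coli BL21-CodonPlus as N-terminal fusions to a polyhistidine tag and DsRed, then purified on Ni–NTA. After primer extension with Cy5-dUTP and blocking with 2% BSA, a custom Agilent array was exposed for 1 h at 25 °C to 200 nM protein in PBS, 2% BSA, salmon testes DNA and 50 µM zinc acetate. Washed arrays were scanned on an Axon 4000B, and the binding signal is per-feature fluorescence intensity in arbitrary units.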

**Q.** Which binding signal does the source give for “AACTTAAAATTCCAATCACAATTGTTTCTCAAATGTTTGGCGGAGTCACCTAGTGCAG” here?
**A.** 29500 fluorescence intensity (a.u.)

**Q.** With “TCTTCTGTGATTTGCTCATTTCGTTCCCCAAACAGGGCGCCGGAGTCACCTAGTGCAG” as the sequence, how does the binding signal read?
**A.** 23700 fluorescence intensity (a.u.)

**Q.** With “TCTTCATGCGTTAATTATTAACTGAAACTTTGTTGTGCTACGGAGTCACCTAGTGCAG” as the sequence, how does the binding signal read?
**A.** 14600 fluorescence intensity (a.u.)

**Q.** How did the binding signal turn out when “CCCAATTGTTTGTCATGTAATTTGAGTCCACATCATCACACGGAGTCACCTAGTGCAG” was run?
**A.** 12000 fluorescence intensity (a.u.)

**Q.** For “ATTACGCCATGATTTGACAATGTGATGTTACAGTAAACATCGGAGTCACCTAGTGCAG”, which binding signal is on record?
**A.** 7670 fluorescence intensity (a.u.)

**Q.** Which binding signal does the source give for “TTCTGACAGGAATTGAAGTGTAAAATGTTGCCATTCCATACGGAGTCACCTAGTGCAG” here?
**A.** 14800 fluorescence intensity (a.u.)

**Q.** For “AACAGGACCTTAATTGATTAGAAGAGCATTAATTATTTTACGGAGTCACCTAGTGCAG”, which binding signal is on record?
**A.** 18800 fluorescence intensity (a.u.)

**Q.** With “CCCTCACGACCAATCATGTCCCACCTCTCCCCTCTATATACGGAGTCACCTAGTGCAG” as the sequence, how does the binding signal read?
**A.** 5580 fluorescence intensity (a.u.)

**Q.** For “CTCGTAGCAAATTAATTAGAACGGCACACATAAATGAGCACGGAGTCACCTAGTGCAG”, which binding signal is on record?
**A.** 16400 fluorescence intensity (a.u.)

**Q.** “CACTAATTCATAACAGATCGAACAGGAACTGTACCCTAAGCGGAGTCACCTAGTGCAG” was tested. Which binding signal did it give?
**A.** 7090 fluorescence intensity (a.u.)

**Q.** “TTCCTGTTTACGACACATAAATAAAGTTAATAATTTGCGGCGGAGTCACCTAGTGCAG” was tested. Which binding signal did it give?
**A.** 3510 fluorescence intensity (a.u.)

**Q.** How did the binding signal turn out when “CACCACAATTAATTATCTCAATTTAGTATTTCTTTAATAGCGGAGTCACCTAGTGCAG” was run?
**A.** 22900 fluorescence intensity (a.u.)

**Q.** With “TATTAAATTGACTATAGATGATTTGGAGCTAGTAATTGGCCGGAGTCACCTAGTGCAG” as the sequence, how does the binding signal read?
**A.** 36800 fluorescence intensity (a.u.)

**Q.** How did the binding signal turn out when “CGTCACAACATGGGATTGATTGGTGAGTGGTTAATATTTTCGGAGTCACCTAGTGCAG” was run?
**A.** 27100 fluorescence intensity (a.u.)

**Q.** “ACATCTATCATTGAAAGGCAACCGATTAGGTTAAATATCACGGAGTCACCTAGTGCAG” was tested. Which binding signal did it give?
**A.** 7310 fluorescence intensity (a.u.)

**Q.** With “CATGCCAATTGCAAGTTGATGACTGAATAGGGAATACAATCGGAGTCACCTAGTGCAG” as the sequence, how does the binding signal read?
**A.** 3260 fluorescence intensity (a.u.)

**Q.** How did the binding signal turn out when “ATCAATACTTAATTAATTATATATTAATAGATAACCTCATCGGAGTCACCTAGTGCAG” was run?
**A.** 30900 fluorescence intensity (a.u.)

**Q.** Which binding signal does the source give for “CAGATGAGAATAACGAGAGATTGATATCTCCCCTTTGCCTCGGAGTCACCTAGTGCAG” here?
**A.** 7640 fluorescence intensity (a.u.)

**Q.** “GATTAATTAGGCTTCATAAATTCGTCTCGCAGTTTACAGGCGGAGTCACCTAGTGCAG” was tested. Which binding signal did it give?
**A.** 30800 fluorescence intensity (a.u.)

**Q.** “GTAAATAAAATCAAACCACTGCACAAGGTCCAGTTTGAGTCGGAGTCACCTAGTGCAG” was tested. Which binding signal did it give?
**A.** 4150 fluorescence intensity (a.u.)

**Q.** How did the binding signal turn out when “TTTAATTGCAGCCGTTTCGTCCACTCTAATACACAAATCACGGAGTCACCTAGTGCAG” was run?
**A.** 10400 fluorescence intensity (a.u.)

**Q.** “TCTCCAATCAATGGTGTCTGGGTTCAGTCACTCCATACGTCGGAGTCACCTAGTGCAG” was tested. Which binding signal did it give?
**A.** 26600 fluorescence intensity (a.u.)

**Q.** “GCTGATGAAACTGATCCATACCGTACCGTACCATTGCCAACGGAGTCACCTAGTGCAG” was tested. Which binding signal did it give?
**A.** 10500 fluorescence intensity (a.u.)

**Q.** With “CTAAATAGAACATTCAAAATAATCAAATAATAATGGCATGCGGAGTCACCTAGTGCAG” as the sequence, how does the binding signal read?
**A.** 10300 fluorescence intensity (a.u.)

**Q.** For “AGAAAACGAATAGATGATGAGATAAAATACATTTCAGGATCGGAGTCACCTAGTGCAG”, which binding signal is on record?
**A.** 3280 fluorescence intensity (a.u.)

**Q.** For “CAAGATTGGCATGTCACCTTTGCAAACAATGCATGTTAGGCGGAGTCACCTAGTGCAG”, which binding signal is on record?
**A.** 33000 fluorescence intensity (a.u.)

**Q.** How did the binding signal turn out when “GCTCCGGCGAGGCGAGGTCGGAGATCCCACCGCCGTGTCGCGGAGTCACCTAGTGCAG” was run?
**A.** 65500 fluorescence intensity (a.u.)

**Q.** Which binding signal does the source give for “CGTCCCTAAATAGATTTTGGTTGGATGTGATGCATTCTAGCGGAGTCACCTAGTGCAG” here?
**A.** 4420 fluorescence intensity (a.u.)

**Q.** With “TAATTATATTGGTATTAATCTGAAGTTTTAATTTGTTCCTCGGAGTCACCTAGTGCAG” as the sequence, how does the binding signal read?
**A.** 3770 fluorescence intensity (a.u.)

**Q.** Which binding signal does the source give for “ATTTTAATCTAAATTTAAAACCTTCAACTCATATATAATACGGAGTCACCTAGTGCAG” here?
**A.** 3380 fluorescence intensity (a.u.)

**Q.** For “GATTAATGATGAAACCCATTCCATAACCCTGGACTAATTCCGGAGTCACCTAGTGCAG”, which binding signal is on record?
**A.** 5370 fluorescence intensity (a.u.)

**Q.** For “GTGGCACTGAATCACTGATTGAATTGTACGTATGATCACACGGAGTCACCTAGTGCAG”, which binding signal is on record?
**A.** 30800 fluorescence intensity (a.u.)

**Q.** With “TTTTCTTGATTAATTAAATATAAATTTGCATTTCATTTCACGGAGTCACCTAGTGCAG” as the sequence, how does the binding signal read?
**A.** 16900 fluorescence intensity (a.u.)

**Q.** With “TATATATATATATATATATATATATTTCATATGAAACACACGGAGTCACCTAGTGCAG” as the sequence, how does the binding signal read?
**A.** 28900 fluorescence intensity (a.u.)

**Q.** How did the binding signal turn out when “TTTGACCAATTTGGCAGTCAACAAAGCAAAGAGTAGTAGGCGGAGTCACCTAGTGCAG” was run?
**A.** 3540 fluorescence intensity (a.u.)

**Q.** For “CATAATCAAATTACATCTTATTTGTACATATTATTATTCTCGGAGTCACCTAGTGCAG”, which binding signal is on record?
**A.** 15500 fluorescence intensity (a.u.)

**Q.** How did the binding signal turn out when “TTTCGCGTGTACACTAATTATATACATTTATCTATTTATGCGGAGTCACCTAGTGCAG” was run?
**A.** 3740 fluorescence intensity (a.u.)

**Q.** Which binding signal does the source give for “GTTAGAAAATTAACAGATGACACCTGAAGTTTAGTTACATCGGAGTCACCTAGTGCAG” here?
**A.** 3800 fluorescence intensity (a.u.)

**Q.** With “GTGGCATTGAACATCAAATTGATCTCATCCCTGGAGCTACCGGAGTCACCTAGTGCAG” as the sequence, how does the binding signal read?
**A.** 5210 fluorescence intensity (a.u.)

**Q.** For “GCTGATATATTATACTAATATATATGTAATAAACAGTGGTCGGAGTCACCTAGTGCAG”, which binding signal is on record?
**A.** 8040 fluorescence intensity (a.u.)

**Q.** For “CCATTGACTGGATTGTAGTATAACAAGATGGATGATGCATCGGAGTCACCTAGTGCAG”, which binding signal is on record?
**A.** 32700 fluorescence intensity (a.u.)

**Q.** With “TGGAAGTCAAGTCACTAATTGGAAGAAGATGGTGATAATGCGGAGTCACCTAGTGCAG” as the sequence, how does the binding signal read?
**A.** 16600 fluorescence intensity (a.u.)

**Q.** How did the binding signal turn out when “TTGAAATTAGAAGATGGACATTATAGTTTGATGAGGAGCACGGAGTCACCTAGTGCAG” was run?
**A.** 16900 fluorescence intensity (a.u.)

**Q.** Which binding signal does the source give for “ATGTTTGATTGCATTTACTGTGTCCCATGAGAGGTAGAGGCGGAGTCACCTAGTGCAG” here?
**A.** 39200 fluorescence intensity (a.u.)

**Q.** “TCAAAACTGACAAATAAGTAAAGGGGAGAGAATAATTCGACGGAGTCACCTAGTGCAG” was tested. Which binding signal did it give?
**A.** 3240 fluorescence intensity (a.u.)

**Q.** “GGATCCATCAATTTAAGTGAAAATTAACGATGAGATTAGACGGAGTCACCTAGTGCAG” was tested. Which binding signal did it give?
**A.** 15600 fluorescence intensity (a.u.)

**Q.** Which binding signal does the source give for “ATGATAATCATATTTGATTTTAAAATCTTAAGGAATTCAACGGAGTCACCTAGTGCAG” here?
**A.** 15000 fluorescence intensity (a.u.)

**Q.** “AACGTACAGTAGATTATTGATTAGCAACAGATTCTCACTGCGGAGTCACCTAGTGCAG” was tested. Which binding signal did it give?
**A.** 23200 fluorescence intensity (a.u.)

**Q.** For “GCAAAATTTTGCTTAGGTCTGATTGCAACACTTGCATCCTCGGAGTCACCTAGTGCAG”, which binding signal is on record?
**A.** 9330 fluorescence intensity (a.u.)

**Q.** With “AGTTAAATTTTAACTCATGGTGACGTGGACGAAACTCTGACGGAGTCACCTAGTGCAG” as the sequence, how does the binding signal read?
**A.** 4740 fluorescence intensity (a.u.)

**Q.** “AGCTAATGAAGAAGTAACATCGCATCAATGGACATAACAACGGAGTCACCTAGTGCAG” was tested. Which binding signal did it give?
**A.** 3210 fluorescence intensity (a.u.)

**Q.** “GATGCAATTTACACCCTTGATGAATCATCCAAAGAATAAACGGAGTCACCTAGTGCAG” was tested. Which binding signal did it give?
**A.** 4700 fluorescence intensity (a.u.)

**Q.** “TTTAATAAAATAATTTTATATTTTAGATGTTGCTAATATTCGGAGTCACCTAGTGCAG” was tested. Which binding signal did it give?
**A.** 4760 fluorescence intensity (a.u.)

**Q.** For “CATCATTTCAATTTCAACCAAATTTCTAATTTTAGCGTGACGGAGTCACCTAGTGCAG”, which binding signal is on record?
**A.** 5200 fluorescence intensity (a.u.)
